The results in this text go back to PubChem BioAssay (NCATS).

The other results are listed elsewhere or left out. The main result of the screen is listed elsewhere. These columns were measured beside it and carry no call. The list favours compounds with an active or inconclusive main result. Potencies come from curve fits of mixed quality, noted in brackets.

The assay is described as follows: qHTS Assay for Lipid Storage Modulators (AID 1519). The settings on record: Drosophila S3 cells, BODIPY lipid droplet/cell ratio, laser cytometry, cells loaded with oleic acid. The procedure, abridged:
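Cells seeded at 5,000 per well were treated with compounds over a concentration series and loaded with oleic acid (400 uM, as added). Lipid droplet fluorescence (488 nm excitation, 500-530 nm channel) was read by laser-scanning cytometry and normalized to 20 uM Triacsin C.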
In general terms: In qHTS, concentration-response curves come from the screen itself.

Setting [1] is: measured here: cell count channel max response.
Where [2] appears, read: measured here: cell number channel AC50.
Setting [3] is: measured here: lipid channel max response.
The mark [4] stands for this setting: measured here: lipid (BODIPY) channel AC50.
Tags tell the direction and shape of the fitted curve.

For `CNc1ccc2oc(C[C@H]3O[C@]4(CC[C@H]3C)O[C@H]([C@H](C)C(=O)c3ccc[nH]3)[C@H](C)C[C@H]4C)nc2c1C(=O)O`, the max response is 96.3% under setting [1] and -83.6% under setting [3]. Further, under setting [2], the AC50 (commonly the midpoint of the concentration-response curve, whichever way the signal moves) is 2.82 µM [rising, full curve].
For `CC(C)CN1CCCC2(CCN(C(=O)Oc3ccccc3)CC2)C1`, the max response under setting [1] was 18.9% and the max response under setting [3] is 31.1%. The AC50 under setting [4] is 2.82 µM [rising, full curve, poor fit].
On to `CC(=O)OC1C2CCC3C1(CC(O)[C@@]1(O)[C@@H](CC(O)C1(C)C)[C@]3(C)O)C[C@@]2(C)O` (stereo partly specified), for which the max response under setting [1] was 18.4% and the max response under setting [3] is 31.7%. Also, the AC50 under setting [4] is 35.5 µM [rising, single point].
Regarding `O=C(Nc1ccccc1)N1CCCC2(CCN(C(=O)Oc3ccccc3)CC2)C1`, the max response under setting [1] worked out at 19.8% and the max response under setting [3] is 29.8%. Also, under setting [4], the AC50 was 0.794 µM [rising, full curve].
With `CC1CCC2C(C)C(=O)OC3OC4(C)CCC1C32OO4` (stereo unspecified), the max response runs as follows: under setting [1], 84.9%; under setting [3], 106%. The AC50 under setting [2] was 14.1 µM [rising, partial curve, poor fit].
For `O=C(Oc1ccccc1)N1CCC[C@@]2(CCN(C(c3ccccc3)c3ccccc3)C2)C1`, the max response by setting is: under setting [1], 23%; under setting [3], 33.2%. Besides, the AC50 under setting [4] is 0.0708 µM [rising, full curve, poor fit].
Regarding `COC(=O)[C@]1(C)CC[C@@]2(C)CC[C@@]3(C)C4=CCc5c(cc(O)c(O)c5C)[C@]4(C)CC[C@@]3(C)C2C1` (stereo partly specified), the max response is, setting by setting: under setting [1], -81.3%; under setting [3], -103%. Besides, the AC50 under setting [2] is 28.2 µM [falling, single point].
For `COc1ccc2c3c1O[C@H]1C(=O)CC[C@@]4(O)C(C2)N(CC2CC2)CCC314` (stereo partly specified), the max response runs as follows: under setting [1], -11.2%; under setting [3], -12.2%. Besides, under setting [2], the AC50 is 0.1 µM [falling, full curve, poor fit].
For `N[C@H](CCP(=O)(O)O)C(=O)O`, the max response is, setting by setting: under setting [1], -9.38%; under setting [3], -9.43%. Besides, the AC50 under setting [4] was 12.6 µM [rising, single point].
As for `C/C(O)=C(/C#N)C(=O)Nc1cc(Br)ccc1Br`, the max response was 57% under setting [1] and 72.5% under setting [3]. For the same compound, the AC50 under setting [2] is 35.5 µM [rising, single point].
Take `C[N+](C)(C)CC(=O)O`: the max response came to 53.6% under setting [1] and 53.8% under setting [3]. Further, under setting [2], the AC50 was 39.8 µM [rising, single point].
For the compound `CC(=O)N1CCN(c2ccc(OCC3CO[C@@](Cn4ccnc4)(c4ccc(Cl)cc4Cl)O3)cc2)CC1` (stereo partly specified), the max response under setting [1] is -63.4% and the max response under setting [3] was -81.1%. For the same compound, the AC50 under setting [2] was 15.8 µM [falling, partial curve].
For the compound `CC1(C)C(=O)[C@@H]2OC2[C@@]2(C)C1CC(O)[C@]1(C)C2CC[C@@]2(C)C(c3ccoc3)OC(=O)C3OC312` (stereo partly specified), the max response reads like this: under setting [1], 21.8%; under setting [3], 25.6%. Further, the AC50 under setting [4] is 0.355 µM [rising, full curve, poor fit].
Regarding `CCN(CC)c1ncnc2c1ncn2[C@@H]1O[C@@H](COP(=O)(O)OP(=O)(O)C(Br)(Br)P(=O)(O)O)[C@H](O)[C@H]1O`, the max response under setting [1] is 15.5% and the max response under setting [3] came out at 26.4%. Moreover, under setting [4], the AC50 is 0.0501 µM [rising, full curve, poor fit].
Regarding `COc1ccccc1CN1CCCC2(CCN(C(=O)Oc3ccccc3)CC2)C1`, the max response under setting [1] amounted to 26.4% and the max response under setting [3] was determined as 38.2%. For the same compound, the concentration at half-maximal activity (AC50) under setting [4] was 0.0141 µM [rising, full curve, poor fit].
With `N#Cc1cccc(NC(=O)N2CC[C@@]3(CCCN(C(=O)Oc4ccccc4)C3)C2)c1`, the max response by setting is: under setting [1], 29.3%; under setting [3], 39.1%. The AC50 under setting [4] is 0.891 µM [rising, partial curve, poor fit].
Consider `C=CCN1CC[C@]23CCCCC2[C@H]1Cc1ccc(O)cc13` (stereo partly specified), for which the max response turned out to be 56% under setting [1] and 57.7% under setting [3]. Besides, the AC50 under setting [2] is 39.8 µM [rising, single point].
For `O=C(Oc1ccccc1)N1CCC2(CCN(Cc3nccs3)CC2)CC1`, the max response reads like this: under setting [1], 25.5%; under setting [3], 33.2%. Moreover, the AC50 under setting [4] is 1.26 µM [rising, full curve, poor fit].
Take `C=CCN1CC[C@]23c4c5ccc(O)c4OC2C(=O)CC[C@]3(O)C1C5` (stereo partly specified): the max response under setting [1] worked out at 19% and the max response under setting [3] was 31.9%. Further, the AC50 under setting [4] was 7.08 µM [rising, partial curve, poor fit].
In the case of `C=C1[C@@H](O)C2C=CC[C@H](C)C(=O)[C@@](C)(O)C=C[C@@H](OC(C)=O)[C@@]23C(=O)N[C@H](Cc2ccccc2)[C@@H]3[C@@H]1C` (stereo partly specified), the max response runs as follows: under setting [1], 17.3%; under setting [3], 24.4%. Under setting [4], the AC50 was 1.26 µM [rising, full curve, poor fit].
In the case of `CCN1C[C@]2(COC(=O)c3ccccc3N3C(=O)C[C@H](C)C3=O)CC[C@H](OC)[C@@]34[C@@H]5C[C@H]6[C@H](OC)[C@H]5[C@](O)(C[C@@H]6OC)[C@@](O)([C@@H](OC)[C@@H]23)[C@@H]14`, the max response runs as follows: under setting [1], 25%; under setting [3], 36.7%. In addition, under setting [4], the AC50 was 39.8 µM [rising, single point].
With `COc1ccc(C[C@@H]2NC[C@H](O)[C@@H]2OC(C)=O)cc1`, the max response was -24.9% under setting [1] and -58.5% under setting [3]. Also, the AC50 under setting [4] is 1 µM [falling, full curve].
